# Test results reported in patent US7732568B2, “Methods for preventing and treating Alzheimer's disease” (AFFIRIS Forschungs-und Entwicklungs GmbH, priority 2003, dated 2010).
# Some results were stated once for a whole list of compounds, not compound by compound.
# System: biotinylated monoclonal antibody specific for DAEFRH (natural N-terminal Aβ42 sequence)
# Experiment: Inhibition assay (competition ELISA): mimotope peptides compete with plate-bound DAEFRH-BSA for the monoclonal antibody, Example 3 (FIGS. 2 and 3)
# Assay type: binding, mice
# Conditions: plate-bound DAEFRH-BSA 0.1 μg/ml, peptides at 50 to 0.0005 μg/ml, 20 min, 37° C.
# Procedure: (§1) FIGS. 2 and 3 describe the results of inhibition assays performed with mimotope peptides included in and obtained from the 5 libraries (as described). The mimotope peptides compete with the original epitope for recognition by the monoclonal antibody. Original epitope and mimotope peptides contain an additional C at the C-terminus for coupling to a protein carrier (if desired).
# (§2) After blocking with PBS/BSA 1% (200 μl/well, 12 h, 4° C.), the plates are washed 3× times with PBS/Tween. Then, biotinylated monoclonal antibody (1:2000, 50 μl/well) and peptides (50 μl/well) at 50, 5, 0.5, 0.05, 0.005, and 0.0005 μg/ml are added for 20 min. at 37° C. The plates are washed 3× times with PBS/Tween and are incubated with horseradish peroxidase (HRP)-labeled streptavidin (100 μl/well, 30 min, RT). The plates are washed 5× times with PBS/Tween and are incubated with ABTS+H2O2 (0.1% w/v, 10 to 45 min) and the reaction is stopped with citric acid followed by photometric evaluation (wavelength 405 nm).
row,SMILES,IC50 of inhibition of monoclonal antibody recognition of the original epitope
1,"CC[C@H](C)[C@H](NC(=O)[C@H](CCCNC(=N)N)NC(=O)[C@H](CC(C)C)NC(=O)[C@H](CCC(=O)O)NC(=O)[C@H](CCCCN)NC(=O)[C@@H](N)CC(=O)O)C(=O)N[C@@H](CS)C(=O)O [Peptide 3001, DKELRI]",less than 0.5 μg/ml
2,"CC[C@H](C)[C@H](NC(=O)[C@H](CCCNC(=N)N)NC(=O)[C@H](CC(C)C)NC(=O)[C@H](CCC(=O)O)NC(=O)[C@H](Cc1c[nH]c2ccccc12)NC(=O)[C@@H](N)CC(=O)O)C(=O)N[C@@H](CS)C(=O)O [Peptide 3002, DWELRI]",more than 0.5 μg/ml
3,"N=C(N)NCCC[C@H](NC(=O)[C@H](Cc1ccccc1)NC(=O)[C@H](CCC(=O)O)NC(=O)[C@H](Cc1ccc(O)cc1)NC(=O)[C@@H](N)CC(=O)O)C(=O)NCC(=O)N[C@@H](CS)C(=O)O [Peptide 3007, DYEFRG]",less than 0.5 μg/ml
4,"C[C@H](NC(=O)[C@@H](N)Cc1ccc(O)cc1)C(=O)N[C@@H](CCC(=O)O)C(=O)N[C@@H](Cc1ccccc1)C(=O)N[C@@H](CCCNC(=N)N)C(=O)NCC(=O)N[C@@H](CS)C(=O)O [Peptide 3005, YAEFRG]",more than 0.5 μg/ml
5,"CC(C)C[C@H](NC(=O)[C@@H](N)CCC(=O)O)C(=O)N[C@@H](CCC(=O)O)C(=O)N[C@@H](Cc1ccccc1)C(=O)N[C@@H](CCCNC(=N)N)C(=O)NCC(=O)N[C@@H](CS)C(=O)O [Peptide 3008, ELEFRG]",less than 5 μg/ml
6,"N=C(N)NCCC[C@H](NC(=O)[C@H](Cc1ccccc1)NC(=O)[C@H](CCC(=O)O)NC(=O)[C@H](Cc1ccccc1)NC(=O)[C@@H](N)CO)C(=O)NCC(=O)N[C@@H](CS)C(=O)O [Peptide 3009, SFEFRG]",less than 5 μg/ml
7,"C[C@H](NC(=O)[C@@H](N)CCC(=O)O)C(=O)N[C@@H](CCC(=O)O)C(=O)N[C@@H](Cc1ccccc1)C(=O)N[C@@H](CCCNC(=N)N)C(=O)NCC(=O)N[C@@H](CS)C(=O)O [Peptide 3006, EAEFRG]",less than 0.5 μg/ml

# System: biotinylated monoclonal antibody specific for DAEFRH (natural N-terminal Aβ42 sequence)
# Experiment: Inhibition assay for additional mimotopes (competition ELISA), Example 4 (FIGS. 4 and 5)
# Assay type: binding, mice
# Conditions: plate-bound DAEFRH-BSA 0.1 μg/ml, peptides at different concentrations, 20 min, 37° C.
# Procedure: as §1, with “4” for “2”, “5” for “3”, “C-terminus (position 7)” for “C-terminus”
# as §2, with “different concentrations” for “50, 5, 0.5, 0.05, 0.005, and 0.0005 μg/ml”, “ABTS H2O2” for “ABTS+H2O2”
row,SMILES,IC50 of inhibition of monoclonal antibody recognition of the original epitope
1,"CC[C@H](C)[C@H](NC(=O)[C@H](CCCCN)NC(=O)[C@H](CC(C)C)NC(=O)[C@H](CCC(=O)O)NC(=O)[C@H](CCCCN)NC(=O)[C@@H](N)CC(=O)O)C(=O)N[C@@H](CS)C(=O)O [Peptide 1236, DKELKI]",more than 5 μg/ml
2,"CC[C@H](C)[C@H](NC(=O)[C@H](CCCNC(=N)N)NC(=O)[C@H](CC(C)C)NC(=O)[C@H](CCC(=O)O)NC(=O)[C@H](CCCNC(=N)N)NC(=O)[C@@H](N)CC(=O)O)C(=O)N[C@@H](CS)C(=O)O [Peptide 1235, DRELRI]",less than 0.5 μg/ml
3,"CC[C@H](C)[C@H](NC(=O)[C@H](CCCCN)NC(=O)[C@H](CC(C)C)NC(=O)[C@H](CCC(=O)O)NC(=O)[C@H](CCCNC(=N)N)NC(=O)[C@@H](N)CC(=O)O)C(=O)N[C@@H](CS)C(=O)O [Peptide 1237, DRELKI]",more than 5 μg/ml
